Test [1] concerns DMPK. Briefly: DMPK knockdown by anti-TfR1 antibody-oligonucleotide conjugates in DM1 patient myotubes. The class given is cell-based, human. Here is the method: (§1) The purified complexes were then tested for cellular internalization and inhibition of the target gene, DMPK. Non-human primate (NHP) or DM1 (donated by DM1 patients) cells were grown in 96-well plates and differentiated into myotubes for 7 days. Cells were then treated with escalating concentrations (0.5 nM, 5 nM, 50 nM) of each complex for 72 hours. Cells were harvested, RNA was isolated, and reverse transcription was performed to generate cDNA. qPCR was performed using TaqMan kits specific for Ppib (control) and DMPK on the QuantStudio 7. The relative amounts of remaining DMPK transcript in treated vs non-treated cells was were calculated and the results are shown in Table 14 and FIG. 20.
as §1, with “of” for “of the target gene,”, “in” for “in Table 14 and”, “23.” for “20.”

For test [2], the system named is DMPK. Briefly: DMPK knockdown by anti-TfR1 antibody-oligonucleotide conjugates in NHP myotubes. The settings on record: conjugate with control DMPK-ASO, 72 hours, concentration not stated (0.5, 5, 50 nM tested). The class given is cell-based, non-human primate. On the procedure:
as §1
as §1, with “of” for “of the target gene,”, “in” for “in Table 14 and”, “23.” for “20.”

For another test, the target named is hTfR1 (Homo sapiens, UniProt P02786). Briefly: Binding kinetics of anti-TfR1 antibodies on Carterra LSA, hTfR1. The note with it: Carterra LSA at 25 C. On the procedure:
Selected anti-TfR1 antibodies were tested for their binding affinity to human TfR1 for measurement of Ka (association rate constant), Kd (dissociation rate constant), and KD (affinity). […] The binding experiment was performed on Carterra LSA at 25 C. An anti-mouse IgG and anti-human IgG antibody “lawn” was prepared on a HC30M chip by amine coupling. 59 IgGs (58 mouse mAbs and 1 human mAb) were captured on the chip. Dilution series of hTfR1, cyTfR1, and hTfR2 were injected to the chip for binding (starting from 1000 nM, 1:3 dilution, 8 concentrations).
Binding data were referenced by subtracting the responses from a buffer analyte injection and globally fitting to a 1:1 Langmuir binding model for estimate of Ka (association rate constant), Kd (dissociation rate constant), and KD (affinity) using the Carterra™ Kinetics software. 5-6 concentrations were used for curve fitting.

Chain of hTfR1 (P02786 whole entry): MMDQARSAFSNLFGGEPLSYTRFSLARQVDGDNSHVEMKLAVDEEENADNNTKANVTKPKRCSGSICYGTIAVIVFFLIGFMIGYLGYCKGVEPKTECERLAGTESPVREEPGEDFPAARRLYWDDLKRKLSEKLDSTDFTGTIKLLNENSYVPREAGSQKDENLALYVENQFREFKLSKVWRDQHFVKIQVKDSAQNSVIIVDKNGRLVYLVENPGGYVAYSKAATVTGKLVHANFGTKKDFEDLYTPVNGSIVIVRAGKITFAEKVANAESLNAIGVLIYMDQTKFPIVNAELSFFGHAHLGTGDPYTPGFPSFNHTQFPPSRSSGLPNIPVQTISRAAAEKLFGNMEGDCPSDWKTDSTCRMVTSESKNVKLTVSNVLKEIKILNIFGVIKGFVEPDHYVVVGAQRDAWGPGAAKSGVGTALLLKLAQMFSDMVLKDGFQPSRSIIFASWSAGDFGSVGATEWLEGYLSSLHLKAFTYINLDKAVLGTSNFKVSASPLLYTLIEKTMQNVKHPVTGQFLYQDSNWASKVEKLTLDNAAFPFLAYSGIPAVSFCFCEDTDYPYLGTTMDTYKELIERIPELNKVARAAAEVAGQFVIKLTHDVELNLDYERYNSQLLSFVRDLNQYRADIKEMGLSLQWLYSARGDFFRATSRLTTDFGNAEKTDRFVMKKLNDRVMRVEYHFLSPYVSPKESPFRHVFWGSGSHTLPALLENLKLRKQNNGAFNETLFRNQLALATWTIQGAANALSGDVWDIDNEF

B1: 3-M9 (antibody, V domains shown)
VH: EVQLQQSGAELVRPGASVKLSCTASDFNIKDDYIHWVKQRPEQGLEWIGRIDPANGNTKYAPKFQDKATITADTSSNTAYLQLSSLTSEDTAVYYCALGYTYWGQGTTLTVSS
VL: DVVMTQTPLTLSVTIGQPASISCKSSQSLLHSYGKTYLNWLLQRPGQSPKLLIYLVSKLESGVPDRFSGSGSGTDFTLKISRVEAEDLGVYYCLQTTHFPQTFGGGTKLEIK
For the molecule B1, the “% knockdown of DMPK in cells from human DM1 patients using Antibody-DMPK ASO conjugate” value in the test with DMPK [1] (DM1 patient myotubes, conjugate with control DMPK-ASO, 72 hours, concentration not stated (0.5, 5, 50 nM tested)) is 39%. In the test with DMPK [1] (conjugates with control DMPK-ASO, in either cyno cells or human DM1 patient cells), the “activity in delivering a payload (DMPK ASO) and achieving DMPK knockdown compared to the control antibody 15G11” value was “superior activity”. Further, in the test with DMPK [2], the “% knockdown of DMPK in NHP cells using Antibody-DMPK ASO conjugate” value turned out to be 52%.

B2: 3-M09 (antibody, V domains shown)
VH: EVQLQQSGAELVRPGASVKLSCTASDFNIKDDYIHWVKQRPEQGLEWIGRIDPANGNTKYAPKFQDKATITADTSSNTAYLQLSSLTSEDTAVYYCALGYTYWGQGTTLTVSS
VL: DVVMTQTPLTLSVTIGQPASISCKSSQSLLHSYGKTYLNWLLQRPGQSPKLLIYLVSKLESGVPDRFSGSGSGTDFTLKISRVEAEDLGVYYCLQTTHFPQTFGGGTKLEIK
With B2, the “dissociation rate constant (koff)” value with hTfR1 came to 382 µM.
